Assay results published in publication PMC7106839.
Results are given in words; binding and its absence hold for the method and conditions named. In cells and extracts the contact can be indirect. Some binding calls cover weakened binding; strength is not graded here.

The chains behind the UniProt entries cited, without tags or fusion partners. Where a name states a change or a piece, a line headed by the entry shows the natural chain unless it says otherwise.
UniProt Q92841: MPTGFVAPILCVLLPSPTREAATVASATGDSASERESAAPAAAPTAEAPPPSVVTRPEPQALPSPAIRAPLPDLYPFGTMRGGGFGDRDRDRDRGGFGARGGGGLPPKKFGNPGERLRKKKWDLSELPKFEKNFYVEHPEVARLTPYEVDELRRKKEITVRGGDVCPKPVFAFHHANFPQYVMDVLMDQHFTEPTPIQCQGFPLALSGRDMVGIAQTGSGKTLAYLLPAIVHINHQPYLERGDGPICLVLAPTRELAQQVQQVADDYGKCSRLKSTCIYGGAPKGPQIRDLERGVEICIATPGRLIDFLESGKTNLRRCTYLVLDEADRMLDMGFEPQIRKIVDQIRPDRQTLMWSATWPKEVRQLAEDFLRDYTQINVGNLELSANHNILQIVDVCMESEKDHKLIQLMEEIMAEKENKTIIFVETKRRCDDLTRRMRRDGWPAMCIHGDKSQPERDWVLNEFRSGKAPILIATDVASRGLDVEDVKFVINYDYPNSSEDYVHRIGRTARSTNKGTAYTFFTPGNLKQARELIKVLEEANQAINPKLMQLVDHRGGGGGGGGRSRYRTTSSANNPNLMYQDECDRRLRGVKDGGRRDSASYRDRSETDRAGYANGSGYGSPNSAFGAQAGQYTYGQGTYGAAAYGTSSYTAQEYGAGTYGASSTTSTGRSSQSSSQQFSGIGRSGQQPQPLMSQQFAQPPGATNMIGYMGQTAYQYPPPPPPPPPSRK
UniProt P17844: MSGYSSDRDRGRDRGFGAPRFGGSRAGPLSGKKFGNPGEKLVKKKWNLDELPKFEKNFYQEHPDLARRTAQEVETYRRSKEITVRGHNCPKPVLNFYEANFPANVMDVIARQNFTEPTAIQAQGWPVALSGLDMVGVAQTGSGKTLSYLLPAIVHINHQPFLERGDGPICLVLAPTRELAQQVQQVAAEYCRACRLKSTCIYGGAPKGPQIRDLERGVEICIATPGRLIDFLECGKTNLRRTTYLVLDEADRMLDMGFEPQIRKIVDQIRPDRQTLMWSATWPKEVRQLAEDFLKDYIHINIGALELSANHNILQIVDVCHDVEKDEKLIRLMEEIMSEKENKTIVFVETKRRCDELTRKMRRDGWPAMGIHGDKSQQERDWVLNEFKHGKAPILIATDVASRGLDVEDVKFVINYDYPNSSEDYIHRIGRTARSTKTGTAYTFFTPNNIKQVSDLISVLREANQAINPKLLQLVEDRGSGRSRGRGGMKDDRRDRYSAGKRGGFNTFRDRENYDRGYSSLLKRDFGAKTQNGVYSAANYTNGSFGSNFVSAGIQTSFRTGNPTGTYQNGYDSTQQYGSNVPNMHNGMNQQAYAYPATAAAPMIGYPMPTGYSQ
UniProt O94992: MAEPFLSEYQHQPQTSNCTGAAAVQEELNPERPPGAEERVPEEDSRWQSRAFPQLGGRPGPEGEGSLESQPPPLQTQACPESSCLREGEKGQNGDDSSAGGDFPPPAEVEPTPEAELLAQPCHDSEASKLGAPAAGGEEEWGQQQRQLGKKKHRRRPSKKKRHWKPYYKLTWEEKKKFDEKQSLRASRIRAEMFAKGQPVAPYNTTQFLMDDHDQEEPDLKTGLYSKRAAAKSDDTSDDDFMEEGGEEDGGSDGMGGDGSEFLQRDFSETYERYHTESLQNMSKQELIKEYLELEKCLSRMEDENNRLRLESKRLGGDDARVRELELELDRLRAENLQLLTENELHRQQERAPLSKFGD
UniProt O60563: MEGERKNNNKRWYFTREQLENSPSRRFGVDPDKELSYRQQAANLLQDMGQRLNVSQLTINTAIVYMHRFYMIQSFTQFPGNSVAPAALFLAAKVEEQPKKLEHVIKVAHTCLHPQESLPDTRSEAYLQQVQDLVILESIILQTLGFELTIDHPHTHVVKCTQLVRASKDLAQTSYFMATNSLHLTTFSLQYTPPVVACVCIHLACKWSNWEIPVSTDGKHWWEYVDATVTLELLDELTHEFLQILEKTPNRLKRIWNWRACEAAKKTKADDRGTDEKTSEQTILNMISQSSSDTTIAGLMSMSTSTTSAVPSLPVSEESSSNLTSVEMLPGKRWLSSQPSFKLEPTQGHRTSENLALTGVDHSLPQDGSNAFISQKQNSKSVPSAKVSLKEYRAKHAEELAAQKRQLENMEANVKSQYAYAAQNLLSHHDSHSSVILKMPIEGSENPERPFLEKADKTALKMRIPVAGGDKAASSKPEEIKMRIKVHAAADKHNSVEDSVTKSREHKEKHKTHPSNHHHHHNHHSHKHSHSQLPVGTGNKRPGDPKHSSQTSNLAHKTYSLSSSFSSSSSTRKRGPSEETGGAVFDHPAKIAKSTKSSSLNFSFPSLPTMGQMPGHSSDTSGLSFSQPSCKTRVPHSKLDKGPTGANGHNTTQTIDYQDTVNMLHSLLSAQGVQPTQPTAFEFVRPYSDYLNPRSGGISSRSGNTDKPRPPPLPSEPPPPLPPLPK

What was measured:
Myc tagged DDX17 (human) = Myc tagged DDX17 (human) (UniProt Q92841); test: co-IP; HeLa cells transfected with Myc-tagged constructs (with pLAI where stated), harvested after 48 h; nuclear extracts; overnight with 2 ug Myc or isotype control antibody in CO-IP buffer (20 mM HEPES pH 7.9, 150 mM NaCl, 0.5 mM DTT, 20% glycerol, 10 mM NaF), A/G Sepharose beads 3 h at 4 C; western …
[1] = molecular target: Myc tagged DDX5 (wild type) (human) (UniProt P17844); test: as above
[2] = molecular target: Myc tagged DDX5 (wild type) (human) (UniProt P17844); test: co-IP; as a1, samples from Myc-DDX5 wild type treated with RNase enzyme; western blot for HEXIM1
[3] = molecular target: Myc tagged DDX5-E249Q (human) (UniProt P17844); test: co-IP; HeLa cells transfected with Myc-tagged constructs (with pLAI where stated), harvested after 48 h; nuclear extracts; overnight with 2 ug Myc or isotype control antibody in CO-IP buffer (20 mM HEPES pH 7.9, 150 mM NaCl, 0.5 mM DTT, 20% glycerol, 10 mM NaF), A/G Sepharose beads 3 h at 4 C; western …
[4] = molecular target: Myc tagged DDX5-T176R + E178V + L179A (human) (UniProt P17844); test: as above

Substance	binding [1]	other results
DDX5 (endogenous) (from UniProt P17844 1-614)		binding (Myc tagged DDX17 (human)): binds
DDX17 (endogenous) (from UniProt Q92841 1-729)	binds	
HEXIM1 (hexamethylene bisacetamide (HMBA) induced protein 1) (from UniProt O94992 1-359)	binds	binding [2]: no binding (condition: with RNase treatment); binding [3]: no binding; binding [4]: no binding
HIV-1 Tat (expressed from the proviral clone pLAI) (from UniProt P04610 1-86)	binds	
P-TEFb (Cyclin T1 and CDK9) (from UniProt O60563 1-726; P50750 1-372) (complex)	no binding	
